# According to PubChem BioAssay AID624296 (National Center for Advancing Translational Sciences (NCATS), 2012):
# Out of some 350,000 compounds screened, about 9,900 (2.8%) were called active. The shares of active, inactive and inconclusive entries below differ from those in the screen. The call rests on the fitted dose curve; in most records, active means well fitted activation curve with a large enough effect; inconclusive means small, poorly fitted or top-dose-only effect; inactive means no such curve, though single readings can be large or run the other way. No potency is given beside an inconclusive call; the fits are too rough.
# Test: A quantitative high throughput screen for small molecules that induce DNA re-replication in MCF 10a normal breast cells. Further: nearly all actives have a fitted effect of over 50% in size.
# Conditions: MCF 10A DNA re-replication, Hoechst nuclear intensity, 48 h; series mostly up to 46.1 µM
# Potency means the concentration at half of the fitted maximal effect; tags describe the fitted curve by direction and shape.
row,Compound,Potency
1,COc1cccc(-c2ccc(NC(=O)C3CCCN(Cc4cnn(C)c4C)C3)cc2)c1 (centres undefined),inactive
2,Cc1cc(C)c(S(=O)(=O)/N=C2\C=CC(=O)C(Cl)=C2)c(C)c1,active: 12.6 µM
3,COc1ccccc1NS(=O)(=O)c1cccc(NC(=O)Nc2ccc(Cl)cc2)c1,"inconclusive [activator, single point]"
4,CC1(C)Cc2ccccc2/C(=C/C(=O)N2CCCCCC2)N1,"inconclusive [activator, single point]"
5,COc1ccccc1C(=O)Nc1ccnn1C1CCN(Cc2cc(C)c(C)cc2C)CC1,"inconclusive [activator, partial curve, poor fit]"
6,O=C(Nc1ccc(F)cc1F)c1cc(-c2ccco2)on1,"inconclusive [activator, partial curve, poor fit]"
7,COCCCNC(=O)/C=C1\Sc2ccccc2N(Cc2ccccc2F)C1=O,"inconclusive [activator, partial curve, poor fit]"
8,Cc1sc2ncnc(N(C)C3CCCCC3)c2c1C,"inconclusive [activator, single point]"
9,COc1cnc(N(C)C)nc1Sc1cccc(Cl)c1,"inconclusive [activator, single point]"
10,O=C(NNc1ccc(O)cc1)c1ccc(Br)cc1,"inconclusive [activator, partial curve, poor fit]"
11,COc1ccc(C2=Nn3c(nnc3-c3ccccc3)SC2)cc1OC,"inconclusive [activator, single point]"
12,O=C(NCC1CCCO1)c1cccc(S(=O)(=O)Nc2ccc(SC(F)F)cc2)c1 (centres undefined),inactive
13,CN(C)c1nc(/C=C(\C#N)C(N)=O)c(Cl)n1-c1ccc(F)cc1,"inconclusive [activator, single point]"
14,O=C(Nc1ccc2nc(-c3cccnc3)[nH]c2c1)c1ccccc1F,inactive
15,Cc1ccc(NC(=O)COC(=O)CNC(=O)c2ccco2)cc1,inactive
16,COc1ccc(C(CCNCc2ccc(N(C)C)cc2)c2ccccc2)cc1 (centres undefined),"inconclusive [activator, single point]"
17,CCc1cccc(C)c1NC(=S)NCc1ccc2[nH]c(C)cc2c1,inactive
18,O=C1c2ccccc2C(=O)c2c1oc(C(F)(F)F)c2C(=O)c1ccccc1,active: 4.61 µM
19,CCOC(=O)CNS(=O)(=O)c1ccc(S(=O)(=O)N2CCCC2)cc1,"inconclusive [activator, partial curve, poor fit]"
20,COc1cc(CN2CCCC(CO)(Cc3cccc(Cl)c3)C2)cc(OC)c1O (centres undefined),"inconclusive [activator, partial curve, poor fit]"
21,CC(Oc1cc(-c2ccccc2)cc2ccccc12)C(=O)N1CCOCC1 (centres undefined),inactive
22,COc1cc(C(=O)N/N=C/C2CC=CCC2)cc(OC)c1OC (centres undefined),active: 3.66 µM

row,Compound,Potency
1,O=C(Nc1nc(-c2cccc([N+](=O)[O-])c2)cs1)c1cccc([N+](=O)[O-])c1C(=O)O,"inconclusive [activator, single point]"
2,Nc1cc(S(=O)(=O)N2CCCCC2)ccc1Oc1ccccc1,inactive
3,O=C(COc1ccccc1F)Nc1cc(S(=O)(=O)N2CCOCC2)ccc1N1CCOCC1,inactive
4,Cc1cc(OC(=O)C(C)(C)C)c([N+](=O)[O-])c(=O)[nH]1,inactive
5,COc1cc(C2c3cc4c(cc3C(O)C3COCC23)OCO4)cc(OC)c1OC (centres undefined),"inconclusive [activator, single point]"
6,O=C(CC1SC(=Nc2ccccc2)N(Cc2ccccn2)C1=O)Nc1cccc(Cl)c1 (centres undefined),"inconclusive [activator, partial curve, poor fit]"
7,Cc1ccc(/C=N/n2cnc3sc4c(c3c2=O)CCCC4)o1,"inconclusive [activator, single point]"
8,O=C(Nc1nc(-c2cc(Cl)sc2Cl)cs1)c1ccc(Br)s1,"inconclusive [activator, partial curve, poor fit]"
9,CCOc1cc(/C=N/Nc2nc(-c3cccs3)c(NC(C)=O)s2)ccc1O,inactive
10,C=CCOc1ccccc1CNc1cccc(F)c1,inactive
11,CC1=C(C)CS(=O)N(S(=O)(=O)c2ccc(Cl)cc2)C1 (centres undefined),"inconclusive [activator, single point]"
12,C[C@H](CO)N1C[C@H](C)[C@@H](CN(C)S(=O)(=O)c2cn(C)cn2)Oc2ccc(NC(=O)Cc3ccccc3)cc2C1=O,inactive
13,CCCCn1nnnc1NCc1cc(OC)c(OC)cc1OC,inactive
14,Cc1cc(Cl)ccc1OCCCC(=O)N1CCN(S(=O)(=O)c2ccccc2)CC1,"inconclusive [activator, partial curve, poor fit]"
15,COc1ccc(NC(=O)CSc2n[nH]c(-c3ccccn3)n2)cc1,"inconclusive [activator, partial curve, poor fit]"
16,CCN(CC)CCC(c1cc(OC)c(OC)c(OC)c1)c1c(OC)cc(OC)c2ccc(=O)oc12 (centres undefined),"inconclusive [activator, full curve, poor fit]"
17,CCC(C)(C)C1CCc2[nH]nc(C(=O)N/N=C(\C)c3ccco3)c2C1 (centres undefined),"inconclusive [activator, partial curve, poor fit]"
18,O=C(Nc1ccccc1[N+](=O)[O-])c1cncc(Br)c1,"inconclusive [activator, single point]"
19,CN1CCN(C(=O)CSc2nnc(COc3ccc(Cl)cc3)o2)CC1,"inconclusive [activator, single point]"
20,CC(=O)c1cc(NC(=O)c2ccc([N+](=O)[O-])cc2)c(=O)oc1C,active: 16.4 µM
21,N#Cc1ccc(-c2ccc(F)cc2)nc1Sc1ccccc1,"inconclusive [activator, single point]"
22,CCOC(=O)c1csc(NC(=O)CSc2nnnn2CC)n1,"inconclusive [activator, partial curve, poor fit]"
